Here are results for 58 compounds from the supplement of paper PMC9446081.

About 220 (0.56%) of roughly 39,000 compounds showed activity. This is one part of the list.
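Note: static incubation at 37 °C against the wild-type strain, values averaged over two biological replicates.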

This test has as its system Escherichia coli K-12 BW25113. As to the kind of experiment: relative growth (OD600 normalised to plate interquartile mean) (fraction); higher = less growth inhibition, active = 0.2 or less. The conditions noted are these: 50 µM; LB; incubation time: overnight (16-24 h).
In the case of `NC[C@H](c1ccccc1)N1CCOCC1`, the relative growth was inactive: 1. On to `c1ccc2nc(C3=NCCN3)cnc2c1`, for which the relative growth was inactive: 0.999.

As to `COc1ccc(NC(=O)Nc2ccc3c(c2)CC(=O)N([C@H](C)CO)C[C@H](C)[C@H](CN(C)Cc2ccc(-c4ccccc4)cc2)O3)cc1`, the relative growth was inactive: 0.951. As to `COc1ccc(S(=O)(=O)N(C)C[C@@H]2OCc3cnnn3CCCC(=O)N([C@H](C)CO)C[C@H]2C)cc1`, the relative growth is inactive: 0.989. The result for `CCS(=O)(=O)NCC[C@@H]1CC[C@@H](NC(=O)C2CC2)[C@@H](CO)O1` reads inactive: 0.982; that for `COc1cc2c(cc1OC)CN(C(=O)[C@@H]1[C@H]3C(=O)O[C@H](c4ccccc4)[C@H](c4ccccc4)N3[C@H](c3ccc(OCCO)cc3)[C@@]13C(=O)Nc1ccccc13)CC2`, inactive: 1.06; that for `C[C@H]1CN([C@@H](C)CO)C(=O)Cc2cc(NS(=O)(=O)c3cn(C)cn3)ccc2O[C@H]1CN(C)S(C)(=O)=O`, inactive: 1. The result for `C[C@H](CO)N1C[C@H](C)[C@H](CN(C)C(=O)NC2CCCCC2)Oc2c(NC(=O)c3cnccn3)cccc2C1=O` reads inactive: 0.986; that for `Cc1ccc(S(=O)(=O)Nc2ccc3c(c2)C(=O)N([C@H](C)CO)C[C@@H](C)[C@H](CN(C)C(=O)NC2CCCCC2)OCCCC[C@H](C)O3)cc1`, inactive: 1.02; that for `Cc1cc(C(=O)Nc2cccc3c2O[C@@H](CN(C)S(=O)(=O)c2cccs2)[C@@H](C)CN([C@H](C)CO)C3=O)n(C)n1`, inactive: 1.01. Then `COc1ccc(CN2C[C@@H](C)[C@@H](OC)CN(C)C(=O)c3cc(NC(=O)c4nc5ccccc5s4)ccc3OC[C@H]2C)cc1`, with inactive: 1.02; and `CS(=O)(=O)Nc1ccc2c(c1)[C@H]1C[C@@H](CC(=O)NCc3ccc(-c4ccccc4)cc3)O[C@@H](CO)[C@H]1O2`, with inactive: 0.962; and `C[C@H]1CCCCO[C@H](CN(C)C(=O)Nc2ccc(F)cc2)[C@@H](C)CN([C@@H](C)CO)C(=O)c2cc(NC(=O)NC3CCCCC3)ccc2O1`, with inactive: 1.01.

With `C[C@@H]1CN([C@H](C)CO)C(=O)Cc2cc(NC(=O)Cc3ccccc3)ccc2O[C@@H]1CN(C)C(=O)Nc1cccc2ccccc12`, the relative growth is inactive: 0.986. The result for `C[C@H]1CCCCO[C@@H](CN(C)Cc2ccc(C(F)(F)F)cc2)[C@@H](C)CN([C@@H](C)CO)C(=O)c2cc(NC(=O)Cc3ccccc3)ccc2O1` reads inactive: 1.03; that for `CC(C)NC(=O)N(C)C[C@@H]1OCCCC[C@H](C)Oc2ccc(NC(=O)Nc3ccc(C(F)(F)F)cc3)cc2C(=O)N([C@@H](C)CO)C[C@H]1C`, inactive: 1.06. Then `C[C@@H]1CCCCO[C@H](CN(C)S(=O)(=O)c2ccc(F)cc2)[C@@H](C)CN([C@H](C)CO)C(=O)c2cc(NS(=O)(=O)c3ccc(Cl)cc3)ccc2O1`, with inactive: 1.02. Then `C[C@@H]1CN([C@H](C)CO)C(=O)CCCn2cc(nn2)CO[C@H]1CN(C)S(=O)(=O)c1ccccc1C#N`, with inactive: 1.01; and `C[C@@H]1CCCCO[C@@H](CN(C)C(=O)Nc2ccccc2)[C@H](C)CN([C@H](C)CO)C(=O)c2cc(NC(=O)Cc3ccccc3)ccc2O1`, with inactive: 1.01; and `COc1ccc2c3c([nH]c2c1)[C@@H](CO)N(C[C@]13CN(CC2CCCCC2)C1)C(=O)Nc1cccc(c1)F`, with inactive: 0.964.

Turning to `C[C@@H]1CN([C@H](C)CO)C(=O)c2cccc(NC(=O)c3nc4ccccc4s3)c2O[C@H]1CN(C)S(=O)(=O)c1cn(C)cn1`, the relative growth was inactive: 1. With `C[C@@H]1CCCCO[C@H](CN(C)Cc2ccncc2)[C@H](C)CN([C@H](C)CO)C(=O)c2cc(NC(=O)NC3CCCCC3)ccc2O1`, the relative growth was inactive: 0.997.

On to `COc1ccc(NC(=O)Nc2ccc3c(c2)CC(=O)N([C@H](C)CO)C[C@H](C)[C@@H](CN(C)CC2CCCCC2)O3)cc1`, for which the relative growth was inactive: 0.984. Then `C=C1CC(=O)C2=C(C)C[C@H](O[C@@H]3O[C@H](CO)[C@@H](O)[C@H](O)[C@H]3O)[C@H]3C(=C)C(=O)O[C@@H]3[C@@H]12`, with inactive: 1.01; and `CSc1nc(C)cc(OCCO)n1`, with inactive: 1.03. Consider `CC(C)NC(=O)Nc1ccc2c(c1)CC(=O)N([C@H](C)CO)C[C@@H](C)[C@@H](CN(C)S(=O)(=O)c1cn(C)cn1)O2`, for which the relative growth was inactive: 0.902. Then `C[C@@H]1CCCCO[C@@H](CN(C)C(=O)Nc2cccc3ccccc23)[C@@H](C)CN([C@H](C)CO)C(=O)c2cc(NS(=O)(=O)c3cccs3)ccc2O1`, with inactive: 1.01; and `C/C=C/c1ccc2c(c1)O[C@H](CN(C)S(=O)(=O)c1ccccc1OC)[C@H](C)CN([C@H](C)CO)S2(=O)=O`, with inactive: 1.01. The result for `CCC(=O)OC(CC(=O)O)C[N+](C)(C)C.[Cl-]` (stereo not drawn) reads inactive: 1.05. Then `Cc1ccc(S(=O)(=O)Nc2ccc3c(c2)C(=O)N([C@@H](C)CO)C[C@@H](C)[C@H](CN(C)Cc2ccc(Cl)c(Cl)c2)O3)cc1`, with inactive: 0.979; and `C[C@H]1CN([C@@H](C)CO)C(=O)CCCn2nncc2CO[C@@H]1CN(C)S(=O)(=O)c1ccc2ccccc2c1`, with inactive: 0.969; and `C=CCN(C(=O)[C@H]1N(C(C)(C)CO)C(=O)[C@H]2[C@H](C(=O)O)[C@@H]3C=C[C@@]21O3)C(C)(C)C`, with inactive: 1.01. Consider `CC(C)NC(=O)N(C)C[C@H]1Oc2ccc(NS(=O)(=O)c3cccs3)cc2C(=O)N([C@H](C)CO)C[C@@H]1C`, for which the relative growth is inactive: 1. With `Cc1noc(C)c1NC(=O)Nc1ccc2c(c1)C(=O)N([C@H](C)CO)C[C@H](C)[C@H](CN(C)Cc1ccc(Cl)c(Cl)c1)O2`, the relative growth is inactive: 0.991. The result for `C[C@@H]1CN([C@@H](C)CO)C(=O)c2cc(NC(=O)Nc3ccc4c(c3)OCO4)ccc2O[C@@H](C)CCCCO[C@@H]1CN(C)S(=O)(=O)c1ccccc1` reads inactive: 1.01.

For the compound `CON=C1CC2(CC3CC(CC=C(C)CC(C)C=CC=C4COC5C(O)C(C)=CC(C(=O)O3)C45O)O2)OC(C(C)=CC(C)C)C1C` (stereo not drawn), the relative growth is inactive: 0.891. Then `COc1ccc(NC(=O)Nc2ccc3c(c2)CC(=O)N([C@H](C)CO)C[C@H](C)[C@H](CN(C)S(=O)(=O)c2cn(C)cn2)O3)cc1`, with inactive: 0.994; and `C[C@@H]1CN([C@@H](C)CO)C(=O)c2cc(NC(=O)Nc3ccccc3)ccc2O[C@@H](C)CCCCO[C@@H]1CN(C)C(=O)Nc1ccc2c(c1)OCO2`, with inactive: 1.02.

Take `Cc1ccc(S(=O)(=O)Nc2ccc3c(c2)C(=O)N([C@H](C)CO)C[C@@H](C)[C@@H](CN(C)C(=O)Cc2ccccc2)OCCCC[C@H](C)O3)cc1`: the relative growth is inactive: 1.01. The result for `O=C(C[C@@H]1CC[C@@H]2[C@H](COC[C@H](O)CN2CC2CCOCC2)O1)N1CCOCC1` reads inactive: 0.994.

In the case of `COc1ccc(S(=O)(=O)N(C)C[C@@H]2OCCCC[C@@H](C)Oc3ccc(NC(=O)Nc4ccccc4)cc3C(=O)N([C@@H](C)CO)C[C@H]2C)cc1`, the relative growth is inactive: 1.02. The result for `C[C@@H]1CN([C@H](C)CO)C(=O)Cc2cc(NC(=O)Cc3cn(C)c4ccccc34)ccc2O[C@H]1CN(C)Cc1ccc(C(F)(F)F)cc1` reads inactive: 0.983. For `C[C@H]1CN([C@@H](C)CO)C(=O)Cc2cc(NS(=O)(=O)c3ccccc3)ccc2O[C@H]1CN(C)Cc1ccc(Cl)c(Cl)c1`, the relative growth is inactive: 1.01. `COc1ccc(S(=O)(=O)N(C)C[C@@H]2Oc3ccc(NC(=O)CCN4CCOCC4)cc3C(=O)N([C@@H](C)CO)C[C@H]2C)cc1`: the relative growth was inactive: 1.

`C[C@H](CO)N1C[C@H](C)[C@H](CN(C)Cc2cccc(F)c2)Oc2cc(C#CC3CC3)ccc2S1(=O)=O`: the relative growth was inactive: 0.978. The result for `C[C@@H]1CCCCO[C@H](CN(C)S(=O)(=O)c2cn(C)cn2)[C@H](C)CN([C@@H](C)CO)C(=O)c2cc(NS(=O)(=O)c3cn(C)cn3)ccc2O1` reads inactive: 0.983; that for `C[C@H]1CN([C@@H](C)CO)C(=O)c2cccc(NC(=O)Nc3ccc(C(F)(F)F)cc3)c2O[C@H]1CN(C)CC1CCCCC1`, inactive: 0.92; that for `COc1ccc([C@@H]2C/C=C\C[C@@H](c3cccc(Cl)c3)NC(=O)[C@@H](c3ccccc3)CC(=O)N2)c(OC)c1`, inactive: 1. As to `COc1c(OC)c2occc2c2oc(=O)ccc12`, the relative growth is inactive: 1.04. The result for `O=C(C[C@@H]1CC[C@H]2[C@@H](COC[C@@H](O)CN2C(=O)c2ccccc2)O1)N1CCOCC1` reads inactive: 0.993; that for `C[C@@H]1CN([C@H](C)CO)C(=O)c2cc(C#Cc3ccccc3F)cnc2O[C@@H]1CN(C)C(=O)Cc1cccnc1`, inactive: 0.996; that for `C[C@@H]1CCCCO[C@@H](CN(C)S(=O)(=O)c2cn(C)cn2)[C@@H](C)CN([C@@H](C)CO)C(=O)c2cc(NS(=O)(=O)c3ccc(F)cc3)ccc2O1`, inactive: 0.996. The result for `Cc1ccc(CNC[C@H]2Cn3nncc3CO2)o1` reads inactive: 1.01; that for `CC(C)NC(=O)N(C)C[C@@H]1Oc2ccc(NS(=O)(=O)c3ccc(Cl)cc3)cc2C(=O)N([C@H](C)CO)C[C@H]1C`, inactive: 0.984. For the compound `CCNC(=O)[C@H]1[C@H](CO)[C@H]2Cn3c(ccc(-c4cccc(C(=O)N(C)C)c4)c3=O)[C@@H]1N2`, the relative growth was inactive: 0.983. As to `C[C@H]1CN([C@@H](C)CO)C(=O)c2cc(NC(=O)CCCCCC(=O)Nc3ccccc3N)ccc2O[C@@H]1CN(C)C(=O)Nc1cccc2ccccc12`, the relative growth was inactive: 0.965. Then `C=CC[C@@H](CC(=O)N(CCO)Cc1ccccc1)C(=O)N[C@@H](COC(=O)[C@@H](CC=C)Cc1ccc(F)cc1)Cc1c[nH]c2ccccc12`, with inactive: 1.12. Regarding `C[C@H]1CN([C@@H](C)CO)C(=O)Cc2cc(NC(=O)Nc3ccc(C(F)(F)F)cc3)ccc2O[C@@H]1CN(C)C(=O)Nc1ccc(F)cc1`, the relative growth was inactive: 1.01.
